Article PMC4336329 (PLoS ONE, 2015)
Hit rate of the full screen: of about 310,000 compounds, about 2,200 (0.71%) showed an effect of 50% or more. Effects have a minus sign here. The list shows a part of the results.

molecular target: human ether-à-go-go-related gene (hERG) potassium channel (human, UniProt Q12809); experiment: primary screen, population patch clamp on CHO cells stably expressing hERG
Sequence (Q12809 whole entry, looked up): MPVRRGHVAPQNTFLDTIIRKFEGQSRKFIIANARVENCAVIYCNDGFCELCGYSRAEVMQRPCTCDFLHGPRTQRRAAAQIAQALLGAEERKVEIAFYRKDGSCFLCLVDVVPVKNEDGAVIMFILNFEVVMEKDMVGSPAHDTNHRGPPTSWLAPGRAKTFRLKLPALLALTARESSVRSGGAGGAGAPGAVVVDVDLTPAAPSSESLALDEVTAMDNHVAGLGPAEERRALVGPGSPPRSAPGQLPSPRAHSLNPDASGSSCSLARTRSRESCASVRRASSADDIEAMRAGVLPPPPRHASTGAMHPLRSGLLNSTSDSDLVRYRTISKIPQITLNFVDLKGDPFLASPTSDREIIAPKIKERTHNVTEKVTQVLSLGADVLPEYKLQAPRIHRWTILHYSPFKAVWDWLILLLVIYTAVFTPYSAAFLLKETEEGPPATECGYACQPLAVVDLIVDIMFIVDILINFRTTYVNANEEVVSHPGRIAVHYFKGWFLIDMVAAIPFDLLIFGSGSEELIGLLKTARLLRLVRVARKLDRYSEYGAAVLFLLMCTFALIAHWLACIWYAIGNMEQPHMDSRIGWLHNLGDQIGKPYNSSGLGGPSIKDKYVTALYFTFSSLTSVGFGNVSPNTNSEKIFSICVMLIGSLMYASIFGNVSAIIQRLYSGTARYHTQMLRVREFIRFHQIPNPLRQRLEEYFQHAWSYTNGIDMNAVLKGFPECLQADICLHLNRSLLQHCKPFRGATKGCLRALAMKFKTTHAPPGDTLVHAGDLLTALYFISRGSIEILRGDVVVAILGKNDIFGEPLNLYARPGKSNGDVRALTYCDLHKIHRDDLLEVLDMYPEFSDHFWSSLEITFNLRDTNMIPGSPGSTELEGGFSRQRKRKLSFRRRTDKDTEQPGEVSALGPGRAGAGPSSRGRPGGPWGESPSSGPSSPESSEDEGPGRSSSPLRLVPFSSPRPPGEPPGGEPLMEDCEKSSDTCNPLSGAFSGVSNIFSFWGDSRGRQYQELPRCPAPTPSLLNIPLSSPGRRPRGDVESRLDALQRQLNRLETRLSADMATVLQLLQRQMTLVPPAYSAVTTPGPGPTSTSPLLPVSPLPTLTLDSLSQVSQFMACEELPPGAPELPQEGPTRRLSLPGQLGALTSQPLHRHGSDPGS

| Structure (SMILES) | hERG current change (%, negative = inhibition) at 1uM [%] |
| --- | --- |
| O=c1c(Br)c(N2CCCC2)cnn1-c1ccccc1 | 11.9 |
| O=C(CSc1ccc(-c2cccs2)nn1)NCc1ccccc1Cl | 7.81 |
| COC(=O)C1=NNC2C(=O)N(c3ccc(C)cc3)C(=O)C12 (centres unmarked) | 8.89 |
| COc1cc2cc(CN(CCCO)S(=O)(=O)c3ccccc3)c(=O)[nH]c2cc1OC | 5.47 |
| Cc1ccccc1NC1=NC(=S)N(c2ccccc2)C12CCCCC2 | 15.1 |
| O=C(O)c1ccc(/C=N/Nc2ccc(F)cc2F)cc1 | 14.4 |
| Cc1ccc(N2C(=O)NC(NS(=O)(=O)c3ccccc3)(C(F)(F)F)C2=O)cc1 (centres unmarked) | 11.6 |
| Cc1ccc(C(=O)Nc2cccc(C(O)c3ccccc3)c2)cc1 (centres unmarked) | 2.72 |
| O=C(c1ccco1)N(CCC(c1ccccc1)c1ccco1)Cc1ccco1 (centres unmarked) | 10.6 |
| CCOc1ccc(NC(=O)CSc2nnnn2CC(=O)O)cc1 | 14.5 |
| C(=N\Nc1ccccn1)/c1c[nH]c2ccccc12 | 11.7 |
| CC(C)NC(=S)Nc1cccc2cnccc12 | 6.24 |
| CN1C(=O)Cc2cc(S(=O)(=O)N3CCN(c4ccccc4F)CC3)ccc21 | 0.287 |
| Cn1c(O)c(C=NCCc2c[nH]c3ccccc23)c(=O)n(C)c1=O | 10.4 |
| COc1cccc(/C=C/C(=O)OCC(=O)NC(=O)NC2CCCCC2)c1 | 2 |
| Cc1ccc(S(=O)(=O)N2CCCc3ccccc32)cc1C | 12.5 |
| CC(C)(C)CC(=O)Nc1ccc(Nc2ccccc2)cc1 | 12.9 |
| CC(=NCCN1CCCCC1)c1c(O)n(-c2ccc(Cl)cc2)c(=O)[nH]c1=O | 3.4 |
| CC(=O)c1cccc(N=Cc2c(O)c3ccccc3oc2=O)c1 | 15.2 |
| c1nnc(NC2=NCCCCC2)s1 | 12.4 |
| COC(=O)c1ccc(Cn2nnc3c(=O)[nH]c(C4CCCN(S(=O)(=O)c5ccc(C)cc5)C4)nc32)cc1 (centres unmarked) | 14.5 |
| CCOc1cc(/C=C2\N=C(C)OC2=O)cc(Br)c1OCCc1ccccc1 | 15.4 |
| CCOCCCNC(=O)C1CCC(CNS(=O)(=O)c2ccc(OC)cc2)CC1 (centres unmarked) | 13.2 |

| Structure (SMILES) | hERG current change (%, negative = inhibition) at 1uM [%] |
| --- | --- |
| COc1cc(N)c(Cl)cc1C(=O)NC1CN2CCC1CC2.Cl.O (centres unmarked) | 1.36 |
| O=C(NCc1ccccc1F)C1CCCN1S(=O)(=O)c1ccc(F)cc1 (centres unmarked) | 18.1 |
| COc1ccc(C(=O)c2c3ccc([N+](=O)[O-])cc3[n+]([O-])n2CCC[NH3+])cc1.[Cl-] | -13.5 |
| COc1cccc(C(=O)N2CCN(Cc3nc(CC4CC4)no3)CC2)c1 | 7.76 |
| COc1ccc(/C=C/CN2CCCC(C(=O)c3ccc(OC)c(F)c3)C2)cc1 (centres unmarked) | -47.1 |
| CCn1c(-c2ccccc2Cl)nn(CC(=O)NCCc2ccccc2)c1=S | 7.85 |
| O=C(c1ccc([N+](=O)[O-])cc1)N(c1ccccn1)c1ccccn1 | 13.1 |
| CCCCn1c(=O)c(C=Nc2ccc(Cl)cc2)c(O)n(Cc2ccco2)c1=O | 6.55 |
| Cc1cccc(N2CCN(C(=O)c3c(C)nn(Cc4ccccc4Cl)c3C)CC2)c1C | 16.9 |
| O=C1CC(c2ccncc2)c2cc3c(cc2N1)OCCO3 (centres unmarked) | 9.41 |
| O=C(NCC1CCCO1)c1ccc(/C=N/O)nc1 (centres unmarked) | 5.39 |
| CC(=O)N(C)c1ccc(NC(=S)Nc2ccccc2)cc1 | 8.15 |
| COc1cc(O)c(CCC(=O)c2cc(OC)c(OC)c(OC)c2)c(OC)c1 | 14.1 |
| Cc1nc2sc(C(=O)Nc3ccccc3Cc3ccccc3)c(C)c2c(=O)[nH]1 | 9.44 |
| CCN(CC)c1ccc2c(Cl)c(Br)c(=O)oc2c1 | 8.55 |
| CCCn1c(SCC(=O)N2c3ccccc3Sc3ccccc32)nc2ccccc21 | 18.5 |
| O=C(Nc1ccc(Cl)cn1)c1ccc2[nH]c(=O)c(=O)[nH]c2c1 | 13.2 |
| COc1cccc(-c2nc(NCc3ccccc3)c3ccccc3n2)c1O | 5.3 |
| COc1ccc(-c2cc(C(F)(F)F)nc(N)n2)cc1 | 13.7 |
| S=c1[nH]nc(-c2ccc(Cl)cc2Cl)n1-c1ccc(Cl)cc1 | 19.6 |
| COc1cccc(NC(=O)CSCc2cc(=O)n3nc(C4CC4)sc3n2)c1 | 12.1 |
| O=C(NC12CC3CC(CC(C3)C1)C2)c1ccc([N+](=O)[O-])o1 | 17 |
| O=C(NN=C1C2CC3CC(C2)CC1C3)c1cccc(S(=O)(=O)N2CCOCC2)c1 | 10.7 |

| Structure (SMILES) | hERG current change (%, negative = inhibition) at 1uM [%] |
| --- | --- |
| O=C(c1ccccc1NS(=O)(=O)c1ccc(Br)s1)N1CCOCC1 | -1.7 |
| CCn1cc(C(=O)N2CCN(c3ccccc3OC)CC2)c2cc(OC)c(OC)cc2c1=O | 13 |
| CCCOc1c(Cl)cc(C(=O)Nc2ccc3c(c2)OCO3)cc1OCC | 8.19 |
| O=C(Cn1cc(C(F)(F)F)cc(Cl)c1=O)Nc1cccc(Cl)c1 | 22.2 |
| Cc1ccc(-c2nnc(Nc3ccc4c(c3)OCO4)c3ccccc23)cc1S(=O)(=O)NCCO | 4.31 |
| CC1=C(C(=O)OC(C)C)C(c2ccc(O)cc2)NC(=O)N1 (centres unmarked) | 14 |
| CN(C)c1ccc(C(CC(=O)c2ccccc2)C2CCCCC2=O)cc1 (centres unmarked) | 2.38 |
| COc1ccc([N+](=O)[O-])cc1NC(=O)Cc1noc2ccc(C)cc12 | 8.07 |
| COc1ccccc1C(=O)NCCC(=O)NCc1cccnc1 | 9.87 |
| CC(C)CNc1c2c(nc3ccccc13)CCC2.Cl | -33.5 |
| Cc1c(/C=N\NC(=O)C2(C)CC2(Cl)Cl)cnn1C (centres unmarked) | 9.68 |
| C=CCNC(=O)c1sc(-c2ccccc2)nc1C | 0.876 |
| CCOc1ccc(S(=O)(=O)N2CCN(C(=O)C3CCC3)CC2)cc1 | 12.2 |
| Cc1c(OCC(=O)N2C[C@H]3C[C@@H](C2)c2cccc(=O)n2C3)ccc2c3c(c(=O)oc12)CCC3 | 9.66 |
| CCOC(=O)/C(CCCN(CC)CC)=N\O.CI | 12.6 |
| C/C(=N\NC(=O)c1ccc(CSc2cccc3cccnc23)cc1)C1CCCCC1 | 6.98 |
| C=CCn1c(C)c(C(C)=O)c(N2CCOCC2)nc1=S | 13.8 |
| COc1ccc(NC(=S)N2CCCC(c3nc4ccc(C)cc4[nH]3)C2)cc1 (centres unmarked) | -7.53 |
| COc1ccc(C(C)(C)C)cc1NC(=O)COC(=O)c1nc2nccc(C)n2n1 | 6.73 |
| Cc1ccc(-n2nnc3c(=O)n(CC(=O)c4ccccc4)cnc32)cc1 | 6.81 |
| COc1ccc(CCNC(=O)COC(=O)c2cc(=O)c3ccccc3o2)cc1 | 5.65 |
| COc1ccc(-n2nc(C(=O)N3CCCCC3)c(C)c(C#N)c2=O)cc1 | 10.7 |
| COc1ccc(Nc2nnc(SCC(=O)/C=C3/N(C)c4ccccc4C3(C)C)s2)cc1 | 7.06 |

| Structure (SMILES) | hERG current change (%, negative = inhibition) at 1uM [%] |
| --- | --- |
| O=S(=O)(NCC(c1cccnc1)N1CCN(Cc2ccccc2)CC1)c1cc(F)ccc1F (centres unmarked) | -42.5 |
| CSCCC(NC(=O)c1ccccc1)C(=O)N1CC=C(c2ccccc2)CC1 (centres unmarked) | 7.88 |
| COc1cc(C2C3C(=O)N(c4ccccc4)C(=O)C3ON2c2ccccc2)cc(OC)c1OC (centres unmarked) | -1.58 |
| CCC(CC)N1CCN(CC2CC=CCC2)CC1.O=C(O)C(=O)O (centres unmarked) | 10.9 |
| CC(=O)c1c(C)[nH]c(C(=O)Nc2ccc(C)cc2Br)c1C | 19.3 |
| COC(=O)[C@]1(C)CCC[C@@]2(C)C3CC[C@@]4(C)C[C@]3(CC[C@H]12)C[C@H]4O (some centres unmarked) | -1.87 |
| CCCN1CCN(C(=S)Nc2ccc(SC(F)F)cc2)CC1 | -11.5 |
| O=C(N/N=C/c1ccc(Br)o1)/C(=C/c1ccc([N+](=O)[O-])cc1)NC(=O)c1ccccc1 | -31.9 |
| Cc1cnccc1CN(C)C(=O)C1CCC(=O)N(Cc2ccccc2F)C1 (centres unmarked) | 4.03 |
| O=C(OCC(=O)c1ccc(Cl)s1)c1ccccn1 | 12.6 |
| Cc1cc(C)c(NC(=S)N(CCN(C)C)C(C)c2cccnc2)c(C)c1 (centres unmarked) | 4.38 |
| Cl.O=C(COc1ccccc1F)NC1CCN(Cc2ccccc2)CC1 | -3.6 |
| Cc1ccc(NC(=O)CCC(=O)NNC(=O)c2ccccc2)c(C)c1 | 14 |
| NC(=O)c1ccc2c(c1)OCCO2 | 12.5 |
| CC(C)Oc1ccccc1C1CC(=O)Nc2cc3c(cc21)OCCO3 (centres unmarked) | -7.12 |
| O=C(Nc1ccc(NC(=O)c2ccccc2Cl)nc1)c1ccco1 | 7.62 |
| CCCn1c(-c2ccc(F)cc2)n[nH]c1=S | 5.3 |
| NC(=O)COC(=O)c1ccc(Oc2ccccc2)cc1 | 4.12 |
| O=C(CCC(=O)N1CCN(c2ccc(O)cc2)CC1)c1ccc(Br)cc1 | -21.9 |
| Cn1nc(C(=O)Nc2ccc(S(=O)(=O)Nc3ncccn3)cc2)ccc1=O | 13.5 |
